# Measured values taken from US20030099969A1 (published 2003).
# B1: GST (other)
# chain: not shown
# notes: Control protein in the pull-downs; also called GST control
# Molecular target: T1, 35S-labeled Ipaf (human, UniProt Q9NPP4 1-1024, limits assumed, 35S-labeled)
# T1 construct: Radiolabeled Ipaf used in the GST pull-down
# Assay: GST pull-down on glutathione Sepharose beads, SDS-PAGE and autoradiography
binder,measurement,value
B1,binding result,no binding
